The values below come from article PMC4336329 (PLoS ONE, 2015).

Each structure is given as a SMILES string. Screen size: about 310,000 compounds; about 14,000 (4.5%) showed an effect of 50% or more. The effect is printed as a negative number. Some of the results follow.
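Note: peak tail current of the secondary pulse compared with the same well before compound.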

human ether-à-go-go-related gene (hERG) potassium channel, sequence (Q12809 whole entry, looked up): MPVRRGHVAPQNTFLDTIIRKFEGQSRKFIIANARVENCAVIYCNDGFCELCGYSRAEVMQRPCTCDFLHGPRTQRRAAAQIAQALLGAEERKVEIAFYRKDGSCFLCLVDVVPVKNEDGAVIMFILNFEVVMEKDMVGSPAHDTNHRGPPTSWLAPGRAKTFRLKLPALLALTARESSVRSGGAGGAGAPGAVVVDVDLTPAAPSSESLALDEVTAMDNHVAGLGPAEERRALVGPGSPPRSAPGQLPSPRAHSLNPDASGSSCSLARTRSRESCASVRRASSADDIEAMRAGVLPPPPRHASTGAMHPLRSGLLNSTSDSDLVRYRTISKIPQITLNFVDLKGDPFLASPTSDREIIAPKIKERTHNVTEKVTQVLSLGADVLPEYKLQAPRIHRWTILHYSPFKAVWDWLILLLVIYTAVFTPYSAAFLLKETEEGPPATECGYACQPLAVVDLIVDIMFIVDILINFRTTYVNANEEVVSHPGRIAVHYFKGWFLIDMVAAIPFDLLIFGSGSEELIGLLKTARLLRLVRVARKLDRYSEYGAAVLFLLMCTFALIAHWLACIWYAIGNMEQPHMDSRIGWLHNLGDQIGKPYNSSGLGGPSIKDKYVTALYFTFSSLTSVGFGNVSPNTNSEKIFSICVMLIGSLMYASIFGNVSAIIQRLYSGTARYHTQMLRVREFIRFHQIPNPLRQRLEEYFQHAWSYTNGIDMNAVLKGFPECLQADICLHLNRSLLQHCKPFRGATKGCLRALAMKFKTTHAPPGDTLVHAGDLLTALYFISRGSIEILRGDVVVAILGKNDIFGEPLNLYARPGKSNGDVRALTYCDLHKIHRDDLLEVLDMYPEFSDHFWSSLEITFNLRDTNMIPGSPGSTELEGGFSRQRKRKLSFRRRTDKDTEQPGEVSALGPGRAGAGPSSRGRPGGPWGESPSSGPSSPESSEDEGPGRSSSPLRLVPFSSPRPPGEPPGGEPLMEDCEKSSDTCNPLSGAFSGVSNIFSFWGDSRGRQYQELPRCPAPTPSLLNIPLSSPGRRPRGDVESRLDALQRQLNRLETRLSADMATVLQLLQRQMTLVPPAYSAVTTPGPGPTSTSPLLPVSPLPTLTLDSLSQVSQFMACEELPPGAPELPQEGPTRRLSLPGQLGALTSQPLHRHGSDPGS

The experiment has as its target human ether-à-go-go-related gene (hERG) potassium channel (human, UniProt Q12809). Kind of experiment: primary screen, population patch clamp on CHO cells stably expressing hERG.
On to `COC(=O)c1ccccc1NC(=O)CN(C)S(=O)(=O)c1cc(C)ccc1OC`, for which the “hERG current change (%, negative = inhibition) at 10uM” value was -13.4%.
Take `O=S(Cc1ccccc1)CC(O)(c1ccccc1)c1ccccc1` (stereo not shown): the “hERG current change (%, negative = inhibition) at 10uM” value is -12.5%.
`NNC(=O)c1oc2nc(-c3cccs3)cc(-c3ccco3)c2c1N`: the “hERG current change (%, negative = inhibition) at 10uM” value is -69.8%.
Then `Cc1cc(C(F)(F)F)nn1CC(=O)NCC1CCCO1` (stereo not shown), with 4.29%.
On to `O=C(O)c1cccc(CSc2nnc(Cc3ccccc3)o2)c1`, for which the “hERG current change (%, negative = inhibition) at 10uM” value is recorded as -5.18%.
`CC1=NN(c2ccc(C)cc2C)C(=O)C1C(c1ccccc1)C1C(=O)N(c2ccc(C)cc2C)N=C1C` (stereo not shown): the “hERG current change (%, negative = inhibition) at 10uM” value was -12.5%.
For the compound `CCOC(=O)c1cc(-c2ccc(C)cc2)n(CCC(=O)N2CCN(c3ccccn3)CC2)c1C`, the “hERG current change (%, negative = inhibition) at 10uM” value is listed as -41%.
`O=C(CN1CCCCC1)NNC(=O)c1cccc(Br)c1`: the “hERG current change (%, negative = inhibition) at 10uM” value was 4.73%.
Take `Cc1ccccc1OCC(=O)NCCS(=O)(=O)N1CCN(c2ccc(F)cc2)CC1`: the “hERG current change (%, negative = inhibition) at 10uM” value was -66.6%.
As for `COC(=O)c1nn(-c2ccccc2)c(Sc2ccc(Cl)cc2)c1/C=N/O`, the “hERG current change (%, negative = inhibition) at 10uM” value was determined as 3.1%.
With `CC1CN(C(=O)/C=C/c2ccccc2Cl)CC(C)O1` (stereo not shown), the “hERG current change (%, negative = inhibition) at 10uM” value was 18.2%.
`CC(C)(C)c1ccc(NC(=O)CC2(C(F)(F)F)OCCO2)cc1`: the “hERG current change (%, negative = inhibition) at 10uM” value is on record as -5.25%.
Turning to `CCOc1ccc(S(=O)(=O)N2CCCC(C(=O)N3CCN(CC)CC3)C2)cc1Cl` (stereo not shown), the “hERG current change (%, negative = inhibition) at 10uM” value was -2.73%.
In the case of `O=C(NCc1ccc2c(c1)OCO2)C1CCCN1S(=O)(=O)c1ccc(Cl)cc1` (stereo not shown), the “hERG current change (%, negative = inhibition) at 10uM” value is reported as -35.6%.
Then `Cc1cc(C)n(CCC(=O)N2CCN(S(=O)(=O)c3ccc(C)c(C)c3)CC2)n1`, with 2.06%.
Regarding `Cc1ccc(C(=O)NC(=S)Nc2cccc3nsnc23)cc1`, the “hERG current change (%, negative = inhibition) at 10uM” value came to 3.1%.
As to `COC(=O)c1[nH]c2ccc(Br)cc2c1NC(=O)CN1CCN(C2CCCCC2)CC1`, the “hERG current change (%, negative = inhibition) at 10uM” value is reported as -78.7%.
For `O=C(NC1CC2CCCC(C1)N2CC(=O)N1CCCc2ccccc21)C1CCCCC1` (stereo not shown), the “hERG current change (%, negative = inhibition) at 10uM” value is -70.6%.
With `O=C(OCCOc1ccc(Br)cc1)c1ccc(Cl)c(S(=O)(=O)N2CCOCC2)c1`, the “hERG current change (%, negative = inhibition) at 10uM” value is recorded as -4.43%.
As for `COC(=O)c1ccc(/C=C/C(=O)c2ccc(OC)cc2)cc1`, the “hERG current change (%, negative = inhibition) at 10uM” value was determined as 6.75%.
For `COc1ccc(CC(=O)Nc2cc(C)ccc2O)cc1OC`, the “hERG current change (%, negative = inhibition) at 10uM” value is reported as 4.22%.
Then `O=C(c1ccc(SCc2ccco2)c([N+](=O)[O-])c1)N1CCOCC1`, with 2.2%; and `CCOCCCN(C(=O)Nc1ccc(CC)cc1)C1CCN(C(C)=O)CC1`, with -28%; and `O=C(Cc1coc2cc3c(cc12)CCC3)NC1CCCCCCC1`, with 0.532%.
With `CCCCn1c(=O)c(C(=O)Nc2ccccn2)c(O)c2ccccc21`, the “hERG current change (%, negative = inhibition) at 10uM” value is 2.67%.
On to `Cn1c(=O)c2cc(S(=O)(=O)NCCC(=O)Nc3ccc(Cl)cc3)ccc2n(C)c1=O`, for which the “hERG current change (%, negative = inhibition) at 10uM” value is listed as -4.76%.
Then `COc1ccc(Cc2nnc(N/N=C/c3ccc(Br)cc3)[nH]c2=O)cc1OC`, with 8.36%.
Then `CCN(CC(=O)NCc1ccc(Cl)cc1)C(=O)c1ccc2cc(OC)ccc2c1`, with 3.72%; and `CCCNC(=O)c1ccc(Cl)c(Cl)c1`, with 7.87%.
Take `Cc1cccc(C)c1Oc1nc(-c2ccccc2)ncc1S(=O)(=O)c1ccccc1`: the “hERG current change (%, negative = inhibition) at 10uM” value is reported as 7.21%.
Consider `O=C(Nc1ccc(Cl)cn1)Nc1cccs1`, for which the “hERG current change (%, negative = inhibition) at 10uM” value is given as -2.25%.
For the compound `CC(C(=O)OCC(=O)N1CCN(c2ccccc2)CC1)N1C(=O)c2ccccc2C1=O` (stereo not shown), the “hERG current change (%, negative = inhibition) at 10uM” value is reported as -6.66%.
Take `CCN(CC)S(=O)(=O)c1cc(NC(=O)COC(=O)C2CCC2)ccc1C`: the “hERG current change (%, negative = inhibition) at 10uM” value is -0.777%.
In the case of `CCC(=O)N(CCc1ccccc1)Cc1cc2cc(OC)ccc2[nH]c1=O`, the “hERG current change (%, negative = inhibition) at 10uM” value is reported as -15.6%.
As for `Cc1cc(OC(=O)c2ccccc2[N+](=O)[O-])c([N+](=O)[O-])c(=O)[nH]1`, the “hERG current change (%, negative = inhibition) at 10uM” value stood at 9.57%.
Then `Cc1ccc(C(=O)N/N=C2\CCSC2)cc1[N+](=O)[O-]`, with -2.95%; and `CCO[C@H]1OC(C(=O)O)=C[C@@H](c2ccc(C(F)(F)F)cc2)[C@@H]1CCCO`, with 18.6%.
In the case of `CC(=O)Nc1nc(CC(C)C)cc(-c2ccco2)c1C#N`, the “hERG current change (%, negative = inhibition) at 10uM” value is recorded as 1.59%.
Take `CC(O)CNc1nc2c(c(=O)n(C)c(=O)n2C)n1C/C=C/c1ccccc1` (stereo not shown): the “hERG current change (%, negative = inhibition) at 10uM” value is listed as -13.7%.
With `COc1ccc(N/C=C/C(=O)c2ccccc2)cc1`, the “hERG current change (%, negative = inhibition) at 10uM” value worked out at 7.98%.
Then `COc1ccccc1NC(=O)C(C)N(C)CCOc1ccccc1` (stereo not shown), with 16.5%; and `Cn1cccc1CNC(=O)Nc1ccc(Cl)c(Cl)c1`, with 10.1%; and `O=C(COC(=O)CC1CCCC1)Nc1ccc(Cl)cn1`, with -1.49%.
For `COc1ccc(/C=C/C(=O)c2ccc(OC)cc2OC)c(OC)c1` the value was 1.1%.
Consider `CS(=O)(=O)N(CC(=O)NCc1ccncc1)c1ccc(F)c(Cl)c1`, for which the “hERG current change (%, negative = inhibition) at 10uM” value turned out to be 6.63%.
As for `CCCCCC(=O)N[C@@H](c1ccccc1)[C@@H](O)C(=O)O[C@H]1C[C@@]2(O)[C@@H](OC(=O)c3ccccc3)C3[C@](C)(C(=O)[C@H](O)C(=C1C)C2(C)C)[C@@H](OC1OCC(O)C(O)C1O)C[C@H]1OC[C@@]31OC(C)=O` (stereo partly shown), the “hERG current change (%, negative = inhibition) at 10uM” value is 6.26%.
Regarding `O=C(COC(=O)c1cccc(F)c1)NC1CC1`, the “hERG current change (%, negative = inhibition) at 10uM” value came out at 41.8%.
For `O=C(Cc1cccs1)NCc1cccnc1` the value was 13%; for `O=C(CCN1C(=O)C2C3C=CC(C3)C2C1=O)Nc1c(F)cccc1F` (stereo not shown), -5.72%; for `O=S(=O)(c1ccccc1)N(Cc1nc(-c2ccccc2)no1)C1CCCCC1`, 5.01%.
Then `Oc1ccc(/C=N/Nc2nc(N3CCCCCC3)nc(N3CCCCCC3)n2)c(O)c1`, with 5.14%.
With `COc1cc(OC)cc(C2=NCCN2)c1.Cl`, the “hERG current change (%, negative = inhibition) at 10uM” value is reported as 25.1%.
For `O=C(Nc1ccc2c(c1)C(=O)NC2=O)c1cc(Cl)ccc1Cl` the value was 33.1%.
For the compound `COc1cccc(OCCCCN2CCCCC2)c1`, the “hERG current change (%, negative = inhibition) at 10uM” value is reported as -8.36%.
As for `Cc1c(OCC(=O)NCCCN2CCCC2=O)ccc2c3c(c(=O)oc12)CCC3`, the “hERG current change (%, negative = inhibition) at 10uM” value was 4.72%.
